Measurements from PubChem BioAssay AID504832 (National Center for Advancing Translational Sciences (NCATS), 2011).
Out of some 310,000 compounds screened, about 18,000 (5.8%) were called active. This list was built around the results that the source calls inconclusive (neither active nor inactive); the mix of calls is not that of the screen. Calls come from the whole dose curve; as a rule, active = well fitted inhibition curve with a large enough effect; inconclusive = small, poorly fitted or top-dose-only effect, or another doubt; inactive = no such curve, though single readings can be large or run the other way. Potencies of inconclusive entries are left out as doubtful fits.

assay: Primary qHTS for delayed death inhibitors of the malarial parasite plastid, 48 hour incubation; settings: P. falciparum luciferase growth in erythrocytes; series mostly up to 28.7 µM
Procedure, shortened: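 Luciferase-expressing P. falciparum in infected erythrocytes (2% hematocrit, 0.1% parasitemia final) in RPMI 1640/0.5% Albumax were exposed to compound for 48 hours at 37 C, 5% CO2; growth read as luminescence.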
Potency is the fitted concentration of half-maximal effect; tags give direction and shape of the fitted curve.

Row | Compound | Potency
1 | CCOc1ccc(/C=C/C(=O)Nc2ccc(C(N)=O)cc2)cc1OC | inactive
2 | Cc1ccc(NC(=O)c2cnn(-c3ccccc3)c2C)cc1 | inactive
3 | Cc1nc(-c2ccc(S(=O)(=O)N3CCN(C(c4ccccc4)c4ccccc4)CC3)s2)cs1 | inconclusive [inhibitor, single point]
4 | COc1ccc(NC(=O)C2CCCN2S(=O)(=O)c2cccc3cccnc23)c(OC)c1 (stereo unspecified) | inactive
5 | Cc1cc(F)ccc1NC(=O)C(C)n1c2ccccc2c2nc(=O)cc(C)n21 (stereo unspecified) | inconclusive [inhibitor, full curve]
6 | Cc1cc2ncn(CCOc3ccccc3C#N)c2cc1C | inconclusive [inhibitor, single point]
7 | COc1ccc(C(=O)OC2CC3CCC(C2)[N+]3(C)[O-])cc1OC (stereo unspecified) | inactive
8 | COC(=O)c1ccccc1S(=O)(=O)N1CCCC(c2nc3c(nnn3Cc3ccc(C)cc3)c(=O)[nH]2)C1 (stereo unspecified) | inconclusive [inhibitor, partial curve]
9 | O=C(N/N=C/c1ccc(Cl)cc1)C(=O)N1CCCCCC1 | inactive
10 | c1ccc(COc2cccc(CN3CCc4ccccc4C3)c2)cc1 | inactive
11 | OC1C(O)C(O)C(O)C(O)C1O (stereo unspecified) | inactive
12 | CC(C)(C)C1CCC2(CC1)C(Nc1cccc(C(F)(F)F)c1)=NC(=S)N2CC#N (stereo unspecified) | inconclusive [inhibitor, partial curve]
13 | c1ccc(-c2csc(NC3=NCCCCC3)n2)cc1 | inactive
14 | COc1cc(OC)cc(C(=O)NC(C(=O)Nc2ccc3c(c2)CCC3)C(C)C)c1 (stereo unspecified) | inconclusive [inhibitor, single point]
15 | O=C(NC1CCCCC1)c1cc(-c2ccc(O)cc2)on1 | inactive
16 | C/C(CCC(C)C)=N\NC(=S)Nc1cc(S(=O)(=O)N2CCOCC2)ccc1N1CCOCC1 | inconclusive [inhibitor, partial curve, poor fit]
17 | CCOc1ccc(Br)cc1S(=O)(=O)NC1CC(C)(C)NC(C)(C)C1 | inconclusive [inhibitor, single point]
18 | COc1ccccc1N(CC(O)COc1ccc(C)cc1)S(=O)(=O)c1ccccc1 (stereo unspecified) | inconclusive [inhibitor, single point]
19 | O=C(Cn1nnc(-c2ccc(F)cc2)n1)Nc1cccc(S(=O)(=O)N2CCCC2)c1 | inconclusive [inhibitor, single point]
20 | O=C(CNC(=O)c1ccco1)N=Nc1c(O)[nH]c2ccc(Br)cc12 | inactive
21 | CC1CC(C)CN(CCOCCSc2ccc(Cl)cc2)C1 (stereo unspecified) | inconclusive [inhibitor, single point]
22 | COc1ccc(NC(=O)C(CC(=O)O)Cc2ccc(Br)cc2)cc1 (stereo unspecified) | inactive
23 | Cc1ccc(-c2onc(C)c2C)cc1S(=O)(=O)N1CCOc2ccccc21 | inconclusive [inhibitor, partial curve, poor fit]

Row | Compound | Potency
24 | CC(=O)OC1(C(F)(F)F)Oc2ccccc2NC1=O (stereo unspecified) | inactive
25 | COc1ccc(COc2cc(-c3cccc(OC)c3)nc3ccc(NC(=O)c4ccc(OC)cc4)cc23)cc1 | active: 13.1 µM
26 | CCOC(=O)C1Cn2c(nc3c(c2=O)C2(CCCC2)Cc2ccccc2-3)S1 (stereo unspecified) | inconclusive [inhibitor, single point]
27 | C=C[C@@H]1c2cc(C)ccc2N(S(=O)(=O)c2ccc(C)cc2)[C@H](c2ccccc2C(F)(F)F)C1(C#N)C#N | inconclusive [inhibitor, full curve, poor fit]
28 | CCCCn1c(O)c(C(C)=NCc2ccc3c(c2)OCO3)c(=O)[nH]c1=O | inconclusive [inhibitor, single point]
29 | Cc1c(C)n2c(SCC(=O)N3CCCCCC3)nnc2[nH]c1=O | inactive
30 | COC(=O)CN(c1cc(C(F)(F)F)ccc1Cl)S(C)(=O)=O | inconclusive [inhibitor, full curve, poor fit]
31 | CCOC(=O)N1CCC(N2Cc3cccc(C(=O)Nc4ccc(S(=O)(=O)N(CC)CC)cc4)c3C2=O)CC1 | inconclusive [inhibitor, full curve]
32 | CCOCc1cnc(C)nc1NCC(=O)c1c(C)[nH]c2cc(C)ccc12 | active: 0.828 µM
33 | CCCCNC(=S)NNC(=O)c1csc(C(C)C)c1 | inactive
34 | CCc1ccc(CN(C)C(=O)C2CCC(=O)N(CC3CCCCC3)C2)cc1 (stereo unspecified) | inconclusive [inhibitor, partial curve]
35 | COc1ccc(Nc2ccnc(Nc3ccc(OC)cc3)n2)cc1 | inconclusive [inhibitor, single point]
36 | COc1ccc(OC)c(/C=N/NC(=O)c2cc[n+](Cc3ccccc3)cc2)c1 | inactive
37 | CCOC(=O)/C(C#N)=C\c1cc(C)n(-c2ccccc2)c1C | inactive
38 | Cc1sc2nc(CN(C(=O)c3cccs3)C3CCCC3)[nH]c(=O)c2c1C | inconclusive [inhibitor, single point]
39 | Nn1c(SCC(=O)Nc2nccs2)nncc1=O | inconclusive [inhibitor, partial curve, poor fit]
40 | C=CCNC(=S)Nc1cc(C)ccn1 | inconclusive [inhibitor, single point]
41 | CC1CCN(Cc2nnnn2CCCC(=O)N(C)C(C)c2ccccn2)CC1 (stereo unspecified) | inactive
42 | O=C(CCC(=O)c1ccc(F)cc1)NC1CCCN(Cc2ccccc2F)C1 (stereo unspecified) | inactive
43 | O=C(c1ccc(S(=O)(=O)N2CCC(c3nc4ccccc4[nH]3)CC2)cc1)N1CCOCC1 | inconclusive [inhibitor, partial curve, poor fit]
44 | O=C(CN1C(=O)CC(c2ccco2)Sc2ccccc21)Nc1ccccc1F (stereo unspecified) | inconclusive [inhibitor, partial curve]
45 | CC(=O)N1CCN(c2nc(-c3ccco3)c3c(c2C#N)CC(C)(C)SC3)CC1 | inconclusive [inhibitor, single point]
46 | Cc1cccc(N2CCN(C(=O)CSc3nnnn3C3CC3)CC2)c1C | inconclusive [inhibitor, partial curve, poor fit]
